Measured values taken from US20250026846A1 (JCR PHARMACEUTICALS, published 2025).

T1: recombinant monkey TfR (r monkey TfR: Sino Biological Inc.), crab-eating monkey TfR extracellular region with … (crab-eating monkey (Macaca fascicularis))
T1 construct: Bought from Sino Biological; also called r monkey TfR-ECD (Histag); not shown: histidine tag at the N-terminus
T1 chain: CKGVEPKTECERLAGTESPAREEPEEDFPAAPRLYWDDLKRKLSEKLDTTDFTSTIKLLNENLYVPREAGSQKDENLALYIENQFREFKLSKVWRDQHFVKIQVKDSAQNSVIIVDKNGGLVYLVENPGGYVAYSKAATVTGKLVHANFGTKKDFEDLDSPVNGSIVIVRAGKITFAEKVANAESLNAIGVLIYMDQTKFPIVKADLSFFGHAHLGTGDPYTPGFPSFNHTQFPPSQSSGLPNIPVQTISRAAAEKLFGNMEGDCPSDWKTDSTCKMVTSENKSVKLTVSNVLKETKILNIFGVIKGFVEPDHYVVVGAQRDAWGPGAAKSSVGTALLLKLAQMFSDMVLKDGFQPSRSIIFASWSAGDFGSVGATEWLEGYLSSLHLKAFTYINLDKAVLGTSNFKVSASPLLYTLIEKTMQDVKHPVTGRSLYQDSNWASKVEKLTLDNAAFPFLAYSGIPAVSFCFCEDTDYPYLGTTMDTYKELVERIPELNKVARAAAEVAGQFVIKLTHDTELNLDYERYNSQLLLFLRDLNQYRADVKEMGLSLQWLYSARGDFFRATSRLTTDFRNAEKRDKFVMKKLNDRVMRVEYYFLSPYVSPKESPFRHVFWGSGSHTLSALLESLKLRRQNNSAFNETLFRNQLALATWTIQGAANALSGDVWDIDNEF

B1: IgG4 TPP1 (other)
light: DIVMTQTPLSLSVTPGQPASISCRSSQSLVHSNGNTYLHWYLQKPGQSPQLLIYKVSNRFSGVPDRFSGSGSGTDFTLKISRVEAEDVGVYYCSQSTHVPWTFGQGTKVEIKRTVAAPSVFIFPPSDEQLKSGTASVVCLLNNFYPREAKVQWKVDNALQSGNSQESVTEQDSKDSTYSLSSTLTLSKADYEKHKVYACEVTHQGLSSPVTKSFNRGEC
heavy: EVQLVQSGAEVKKPGESLKISCKGSGYSFMNYWLGWVRQMPGKGLEWMGDIYPGGDYPTYSEKFKVQVTISADKSISTAYLQLSSLKASDTAMYYCARSGNYDEVAYWGQGTLVTVSSASTKGPSVFPLAPCSRSTSESTAALGCLVKDYFPEPVTVSWNSGALTSGVHTFPAVLQSSGLYSLSSVVTVPSSSLGTKTYTCNVDHKPSNTKVDKRV[sequence of human IgG4 Fc with S228P L445P (EU numbers) omitted]GSSYSPEPDQRRTLPPGWVSLGRADPEEELSLTFALRQQNVERLSELVQAVSDPSSPQYGKYLTLENVADLVRPSPLTLHTVQKWLLAAGAQKCHSVITQDFLTCWLSIRQAELLLPGAEFHHYVGGPTETHVVRSPHPYQLPQALAPHVDFVGGLHHFPPTSSLRQRPEPQVTGTVGLHLGVTPSVIRKRYNLTSQDVGSGTSNNSQACAQFLEQYFHDSDLAQFMRLFGGNFAHQASVARVVGQQGRGRAGIEASLDVQYLMSAGANISTWVYSSPGRHEGQEPFLQWLMLLSNESALPHVHTVSYGDDEDSLSSAYIQRVNTELMKAAARGLTLLFASGDSGAGCWSVSGRHQFRPTFPASSPYVTTVGGTSFQEPFLITNEIVDYISGGGFSNVFPRPSYQEEAVTKFLSSSPHLPPSSYFNASGRAYPDVAALSDGYWVVSNRVPIPWVSGTSASTPVFGGILSLINEHRILSGRPPLGFLNPRLYQQHGAGLFDVTRGCHESCLDEEVEGQGFCSGPGWDPVTGWGTPNFPALLKTLLNP
notes: Antibody-enzyme fusion: heavy chain (IgG4) of antibody No. 3N, Gly-Ser, then hTPP-1; also called IgG4 HC-TPP1
B2: IgG4 GS20-TPP1 (other)
light: B1 light
heavy: EVQLVQSGAEVKKPGESLKISCKGSGYSFMNYWLGWVRQMPGKGLEWMGDIYPGGDYPTYSEKFKVQVTISADKSISTAYLQLSSLKASDTAMYYCARSGNYDEVAYWGQGTLVTVSSASTKGPSVFPLAPCSRSTSESTAALGCLVKDYFPEPVTVSWNSGALTSGVHTFPAVLQSSGLYSLSSVVTVPSSSLGTKTYTCNVDHKPSNTKVDKRV[sequence of human IgG4 Fc with S228P L445P (EU numbers) omitted]GGGGSGGGGSGGGGSGGGGSGGGGSGGGGSGGGGSGGGGSGGGGSGGGGSGGGGSGGGGSGGGGSGGGGSGGGGSGGGGSGGGGSGGGGSGGGGSGGGGSSYSPEPDQRRTLPPGWVSLGRADPEEELSLTFALRQQNVERLSELVQAVSDPSSPQYGKYLTLENVADLVRPSPLTLHTVQKWLLAAGAQKCHSVITQDFLTCWLSIRQAELLLPGAEFHHYVGGPTETHVVRSPHPYQLPQALAPHVDFVGGLHHFPPTSSLRQRPEPQVTGTVGLHLGVTPSVIRKRYNLTSQDVGSGTSNNSQACAQFLEQYFHDSDLAQFMRLFGGNFAHQASVARVVGQQGRGRAGIEASLDVQYLMSAGANISTWVYSSPGRHEGQEPFLQWLMLLSNESALPHVHTVSYGDDEDSLSSAYIQRVNTELMKAAARGLTLLFASGDSGAGCWSVSGRHQFRPTFPASSPYVTTVGGTSFQEPFLITNEIVDYISGGGFSNVFPRPSYQEEAVTKFLSSSPHLPPSSYFNASGRAYPDVAALSDGYWVVSNRVPIPWVSGTSASTPVFGGILSLINEHRILSGRPPLGFLNPRLYQQHGAGLFDVTRGCHESCLDEEVEGQGFCSGPGWDPVTGWGTPNFPALLKTLLNP
notes: also called IgG4 HC-GS20-TPP1
B3: IgG4 GS10-GALC (other)
light: B1 light
heavy: EVQLVQSGAEVKKPGESLKISCKGSGYSFMNYWLGWVRQMPGKGLEWMGDIYPGGDYPTYSEKFKVQVTISADKSISTAYLQLSSLKASDTAMYYCARSGNYDEVAYWGQGTLVTVSSASTKGPSVFPLAPCSRSTSESTAALGCLVKDYFPEPVTVSWNSGALTSGVHTFPAVLQSSGLYSLSSVVTVPSSSLGTKTYTCNVDHKPSNTKVDKRV[sequence of human IgG4 Fc with S228P L445P (EU numbers) omitted]GGGGSGGGGSGGGGSGGGGSGGGGSGGGGSGGGGSGGGGSGGGGSGGGGSYVLDDSDGLGREFDGIGAVSGGGATSRLLVNYPEPYRSQILDYLFKPNFGASLHILKVEIGGDGQTTDGTEPSHMHYALDENYFRGYEWWLMKEAKKRNPNITLIGLPWSFPGWLGKGFDWPYVNLQLTAYYVVTWIVGAKRYHDLDIDYIGIWNERSYNANYIKILRKMLNYQGLQRVKIIASDNLWESISASMLLDAELFKVVDVIGAHYPGTHSAKDAKLTGKKLWSSEDFSTLNSDMGAGCWGRILNQNYINGYMTSTIAWNLVASYYEQLPYGRCGLMTAQEPWSGHYVVESPVWVSAHTTQFTQPGWYYLKTVGHLEKGGSYVALTDGLGNLTIIIETMSHKHSKCIRPFLPYFNVSQQFATFVLKGSFSEIPELQVWYTKLGKTSERFLFKQLDSLWLLDSDGSFTLSLHEDELFTLTTLTTGRKGSYPLPPKSQPFPSTYKDDFNVDYPFFSEAPNFADQTGVFEYFTNIEDPGEHHFTLRQVLNQRPITWAADASNTISIIGDYNWTNLTIKCDVYIETPDTGGVFIAGRVNKGGILIRSARGIFFWIFANGSYRVTGDLAGWIIYALGRVEVTAKKWYTLTLTIKGHFTSGMLNDKSLWTDIPVNFPKNGWAAIGTHSFEFAQFDNFLVEATR
notes: also called IgG4 HC-GS10-GALC
B4: IgG4 GS10-AC (other)
light: B1 light
heavy: EVQLVQSGAEVKKPGESLKISCKGSGYSFMNYWLGWVRQMPGKGLEWMGDIYPGGDYPTYSEKFKVQVTISADKSISTAYLQLSSLKASDTAMYYCARSGNYDEVAYWGQGTLVTVSSASTKGPSVFPLAPCSRSTSESTAALGCLVKDYFPEPVTVSWNSGALTSGVHTFPAVLQSSGLYSLSSVVTVPSSSLGTKTYTCNVDHKPSNTKVDKRV[sequence of human IgG4 Fc with S228P L445P (EU numbers) omitted]GGGGSGGGGSGGGGSGGGGSGGGGSGGGGSGGGGSGGGGSGGGGSGGGGSQHAPPWTEDCRKSTYPPSGPTYRGAVPWYTINLDLPPYKRWHELMLDKAPVLKVIVNSLKNMINTFVPSGKIMQVVDEKLPGLLGNFPGPFEEEMKGIAAVTDIPLGEIISFNIFYELFTICTSIVAEDKKGHLIHGRNMDFGVFLGWNINNDTWVITEQLKPLTVNLDFQRNNKTVFKASSFAGYVGMLTGFKPGLFSLTLNERFSINGGYLGILEWILGKKDVMWIGFLTRTVLENSTSYEEAKNLLTKTKILAPAYFILGGNQSGEGCVITRDRKESLDVYELDAKQGRWYVVQTNYDRWKHPFFLDDRRTPAKMCLNRTSQENISFETMYDVLSTKPVLNKLTVYTTLIDVTKGQFETYLRDCPDPCIGW
notes: also called IgG4 HC-GS10-AC
B5: IgG4 GS10-FUCA1 (other)
light: B1 light
heavy: EVQLVQSGAEVKKPGESLKISCKGSGYSFMNYWLGWVRQMPGKGLEWMGDIYPGGDYPTYSEKFKVQVTISADKSISTAYLQLSSLKASDTAMYYCARSGNYDEVAYWGQGTLVTVSSASTKGPSVFPLAPCSRSTSESTAALGCLVKDYFPEPVTVSWNSGALTSGVHTFPAVLQSSGLYSLSSVVTVPSSSLGTKTYTCNVDHKPSNTKVDKRV[sequence of human IgG4 Fc with S228P L445P (EU numbers) omitted]GGGGSGGGGSGGGGSGGGGSGGGGSGGGGSGGGGSGGGGSGGGGSGGGGSQPPRRYTPDWPSLDSRPLPAWFDEAKFGVFIHWGVFSVPAWGSEWFWWHWQGEGRPQYQRFMRDNYPPGFSYADFGPQFTARFFHPEEWADLFQAAGAKYVVLTTKHHEGFTNWPSPVSWNWNSKDVGPHRDLVGELGTALRKRNIRYGLYHSLLEWFHPLYLLDKKNGFKTQHFVSAKTMPELYDLVNSYKPDLIWSDGEWECPDTYWNSTNFLSWLYNDSPVKDEVVVNDRWGQNCSCHHGGYYNCEDKFKPQSLPDHKWEMCTSIDKFSWGYRRDMALSDVTEESEIISELVQTVSLGGNYLLNIGPTKDGLIVPIFQERLLAVGKWLSINGEAIYASKPWRVQWEKNTTSVWYTSKGSAVYAIFLHWPENGVLNLESPITTSTTKITMLGIQGDLKWSTDPDKGLFISLPQLPPSAVPAEFAWTIKLTGVK
notes: also called IgG4 HC-GS10-FUCA1

The binders below were run against T2, recombinant human TfR (r human TfR: Sino Biological Inc.), hTfR extracellular region with a histidine tag at … (human, UniProt P02786) (assay: BLI (Octet RED96), His-tagged TfR ECD on Ni-NTA sensor).
T2 construct: Bought from Sino Biological; also called r human TfR-ECD (Histag); recombinant hTfR; not shown: histidine tag at the N-terminus
For B1, the Kd was less than 1 pM, the koff was less than 1e-07 s⁻¹ and the kon was 758000 M⁻¹ s⁻¹.
B2 showed a Kd of less than 1 pM, a koff of less than 1e-07 s⁻¹ and a kon of 682000 M⁻¹ s⁻¹.
Work on B3 yielded a Kd of less than 1 pM, a koff of less than 1e-07 s⁻¹ and a kon of 31400 M⁻¹ s⁻¹.
In the case of B4, the Kd is reported as less than 1 pM, the koff is reported as less than 1e-07 s⁻¹ and the kon is reported as 576000 M⁻¹ s⁻¹.
In the case of B5, the Kd is reported as less than 1 pM, the koff is reported as less than 1e-07 s⁻¹ and the kon is reported as 466000 M⁻¹ s⁻¹.

Molecular target: T1, recombinant monkey TfR (r monkey TfR: …)
Assay: as above
With B1 the Kd was less than 1 pM, the koff was less than 1e-07 s⁻¹ and the kon was 341000 M⁻¹ s⁻¹.
Binder B2 has a Kd of less than 1 pM, a koff of less than 1e-07 s⁻¹ and a kon of 302000 M⁻¹ s⁻¹.
Binder B3 has a Kd of less than 1 pM, a koff of less than 1e-07 s⁻¹ and a kon of 28000 M⁻¹ s⁻¹.
In the case of B4, the Kd is reported as less than 1 pM, the koff is reported as less than 1e-07 s⁻¹ and the kon is reported as 301000 M⁻¹ s⁻¹.
For B5, the Kd was less than 1 pM, the koff was less than 1e-07 s⁻¹ and the kon was 246000 M⁻¹ s⁻¹.
